The supplement of paper PMC11876631
Residue numbers refer to the chain shown, from its start. Names may count otherwise. ± gives the standard deviation of the averaged measurements. Laboratory Escherichia coli strains with one amino-acid change in an essential protein, pooled on minimal glucose agar with carbenicillin or gentamicin at twice the control MIC (plus kanamycin and chloramphenicol for the plasmids), 48 h. Fold change of barcode share against drug-free plates; higher = less susceptible. Active = above 20 in both replicates (the paper's putatively resistant). '<' = one read or none on drug, '>' = one read or none on a drug-free plate. Shares are relative, so most strains fall below 1 when a few take over. Listed are strains with at least 15 reads on both drug-free plates, and hits; most hits rest on fewer reference reads. Replicate rank correlation about 0.5. Edits are read from barcodes.

B1: plsC I8A (protein)
chain: MLYIFRLAITVIYSILVCVFGSIYCLFSPRNPKHVATFGHMFGRLAPLFGLKVECRKPTDAESYGNAIYIANHQNNYDMVTASNIVQPPTVTVGKKSLLWIPFFGQLYWLTGNLLIDRNNRTKAHGTIAEVVNHFKKRRISIWMFPEGTRSRGRGLLPFKTGAFHAAIAAGVPIIPVCVSTTSNKINLNRLHNGLVIVEMLPPIDVSQYGKDQVRELAAHCRSIMEQKIAELDKEVAEREAAGKV
B2: plsC I8D (protein)
chain: B1 chain with A8D
B3: plsC I8W (protein)
chain: B1 chain with A8W
B4: plsC I23W (protein)
chain: B1 chain with A8I, I23W
B5: plsC I8P (protein)
chain: B1 chain with A8P
B6: plsC I8Q (protein)
chain: B1 chain with A8Q
B7: plsC I23A (protein)
chain: B1 chain with A8I, I23A
B8: plsC I23Q (protein)
chain: B1 chain with A8I, I23Q
B9: plsC I9D (protein)
chain: B1 chain with A8I, I9D
B10: plsB L479W (protein)
chain: MSGWPRIYYKLLNLPLSILVKSKSIPADPAPELGLDTSRPIMYVLPYNSKADLLTLRAQCLAHDLPDPLEPLEIDGTLLPRYVFIHGGPRVFTYYTPKEESIKLFHDYLDLHRSNPNLDVQMVPVSVMFGRAPGREKGEVNPPLRMLNGVQKFFAVLWLGRDSFVRFSPSVSLRRMADEHGTDKTIAQKLARVARMHFARQRLAAVGPRLPARQDLFNKLLASRAIAKAVEDEARSKKISHEKAQQNAIALMEEIAANFSYEMIRLTDRILGFTWNRLYQGINVHNAERVRQLAHDGHELVYVPCHRSHMDYLLLSYVLYHQGLVPPHIAAGINLNFWPAGPIFRRLGAFFIRRTFKGNKLYSTVFREYLGELFSRGYSVEYFVEGGRSRTGRLLDPKTGTLSMTIQAMLRGGTRPITLIPIYIGYEHVMEVGTYAKELRGATKEKESLPQMLRGLSKLRNLGQGYVNFGEPMPLMTYWNQHVPDWRESIDPIEAVRPAWLTPTVNNIAADLMVRINNAGAANAMNLCCTALLASRQRSLTREQLTEQLNCYLDLMRNVPYSTDSTVPSASASELIDHALQMNKFEVEKDTIGDIIILPREQAVLMTYYRNNIAHMLVLPSLMAAIVTQHRHISRDVLMEHVNVLYPMLKAELFLRWDRDELPDVIDALANEMQRQGLITLQDDELHINPAHSRTLQLLAAGARETLQRYAITFWLLSANPSINRGTLEKESRTVAQRLSVLHGINAPEFFDKAVFSSLVLTLRDEGYISDSGDAEPAETMKVYQLLAELITSDVRLTIESATQGEG
B11: plsB V505Q (protein)
chain: B10 chain with W479L, V505Q
B12: plsB V505A (protein)
chain: B10 chain with W479L, V505A

Target: Escherichia coli (laboratory strain)
Test: barcode share on antibiotic plates over drug-free plates; higher = less susceptible
Method: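 A pool of E. coli strains, each edited to carry one amino-acid change in an essential protein, was grown for 48 h on minimal glucose agar with or without antibiotic; strain barcodes were sequenced; mean of two replicates.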

[1] = antibiotic: carbenicillin, 2× MIC (3.1 µg/mL)
[2] = antibiotic: gentamicin, 2× MIC (MIC 0.45 µg/mL)

Row | Protein | fold change of barcode share [1] | fold change of barcode share [2]
1 | B1 | 0.222 ± 0.033 | < 0.00477
2 | B2 | 151 [active] | 
3 | B3 | 1.85 ± 1.1 | < 0.00571
4 | B4 | 0.334 ± 0.093 | 0.00732 ± 0.0047
5 | B5 | 0.293 ± 0.059 | < 0.00715
6 | B6 | 0.365 ± 0.015 | < 0.00788
7 | B7 | 0.307 ± 0.14 | < 0.0121
8 | B8 | 0.304 ± 0.049 | < 0.00669
9 | B9 | 0.398 ± 0.21 | 
10 | B10 | 0.918 ± 0.36 | 0.00425 ± 0.0014
11 | B11 | 0.249 ± 0.081 | 0.0062 ± 0.0044
12 | B12 | 0.473 ± 0.2 | 0.0112 ± 0.014
